Results as given in publication PMC4336329 (PLoS ONE, 2015).
Hit rate of the full screen: of about 310,000 compounds, about 2,200 (0.71%) showed an effect of 50% or more. The effect is printed as a negative number. The list shows a part of the results.

Each compound was assayed against human ether-à-go-go-related gene (hERG) potassium channel (human, UniProt Q12809) (assay: primary screen, population patch clamp on CHO cells stably expressing hERG).
Chain of human ether-à-go-go-related gene (hERG) potassium channel (Q12809 whole entry, looked up): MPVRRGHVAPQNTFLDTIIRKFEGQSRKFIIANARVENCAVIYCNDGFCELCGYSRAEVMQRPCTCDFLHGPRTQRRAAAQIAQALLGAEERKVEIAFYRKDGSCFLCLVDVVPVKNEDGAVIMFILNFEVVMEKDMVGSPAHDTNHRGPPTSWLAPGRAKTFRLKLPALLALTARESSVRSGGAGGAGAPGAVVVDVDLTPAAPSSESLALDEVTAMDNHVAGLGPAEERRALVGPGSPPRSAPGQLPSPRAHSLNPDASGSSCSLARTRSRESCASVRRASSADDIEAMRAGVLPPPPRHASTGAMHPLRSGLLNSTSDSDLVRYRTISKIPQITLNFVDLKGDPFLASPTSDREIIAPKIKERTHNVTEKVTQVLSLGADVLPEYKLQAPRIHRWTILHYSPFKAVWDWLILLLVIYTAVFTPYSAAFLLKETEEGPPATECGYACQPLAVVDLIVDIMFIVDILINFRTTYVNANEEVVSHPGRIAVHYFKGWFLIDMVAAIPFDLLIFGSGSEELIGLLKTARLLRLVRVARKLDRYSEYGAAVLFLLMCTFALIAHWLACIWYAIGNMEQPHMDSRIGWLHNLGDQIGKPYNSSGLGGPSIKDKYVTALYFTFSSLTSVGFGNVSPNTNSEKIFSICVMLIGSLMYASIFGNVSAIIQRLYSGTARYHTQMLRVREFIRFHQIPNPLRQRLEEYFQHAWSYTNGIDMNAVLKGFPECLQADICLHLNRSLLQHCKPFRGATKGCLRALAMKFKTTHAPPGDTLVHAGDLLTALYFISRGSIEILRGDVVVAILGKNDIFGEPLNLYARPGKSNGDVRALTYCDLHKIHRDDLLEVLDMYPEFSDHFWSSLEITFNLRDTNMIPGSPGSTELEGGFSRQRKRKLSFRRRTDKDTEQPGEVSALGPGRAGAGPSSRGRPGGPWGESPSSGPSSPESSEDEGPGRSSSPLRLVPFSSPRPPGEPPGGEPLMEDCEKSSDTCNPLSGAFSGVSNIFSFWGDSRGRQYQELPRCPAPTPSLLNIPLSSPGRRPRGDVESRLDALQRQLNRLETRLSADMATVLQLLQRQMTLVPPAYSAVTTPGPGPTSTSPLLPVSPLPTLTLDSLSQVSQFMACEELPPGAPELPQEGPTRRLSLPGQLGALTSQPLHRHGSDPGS
In the case of `O=c1c2ccccc2c(C=Nc2cccc(S(=O)(=O)NC3=NCCCCC3)c2)c(O)n1Cc1ccccc1`, the “hERG current change (%, negative = inhibition) at 1uM” value is reported as 3.66%.
In the case of `O=C(c1cc2ccccc2c(=O)o1)N1CCc2ccccc2C1`, the “hERG current change (%, negative = inhibition) at 1uM” value is reported as 5.39%.
For `CCCNC(=O)CN1C(=O)COc2ccc(S(=O)(=O)N3CCCCCC3)cc21`, the “hERG current change (%, negative = inhibition) at 1uM” value was 14.6%.
In the case of `O=Cc1cn(CC(=O)Nc2ccccc2)c2ccccc12`, the “hERG current change (%, negative = inhibition) at 1uM” value is reported as 6.4%.
`COc1cc(NC(=S)NCc2cccnc2)cc(OC)c1OC` was tested, and the “hERG current change (%, negative = inhibition) at 1uM” value was 20.9%.
For `Cc1cc(Cl)ccc1OCCCC(=O)N1CCN(C)CC1`, the “hERG current change (%, negative = inhibition) at 1uM” value was 0.322%.
In the case of `COc1cccc(NC(=O)CSc2nnc(NC(=O)C3CC3)s2)c1`, the “hERG current change (%, negative = inhibition) at 1uM” value is reported as 13.8%.
In the case of `COc1ccc(NC(=O)CSc2cc(C)nc3c(-c4ccccc4)cnn23)cc1`, the “hERG current change (%, negative = inhibition) at 1uM” value is reported as 11.8%.
In the case of `O=C(COc1ccccc1-c1ccccc1)Nc1ccc(S(=O)(=O)NCc2ccco2)cc1`, the “hERG current change (%, negative = inhibition) at 1uM” value is reported as 9.14%.
In the case of `CCOC(=O)c1ccc(NC(=O)CSc2nnc(C3CCCCC3)n2C)cc1`, the “hERG current change (%, negative = inhibition) at 1uM” value is reported as 11.9%.
With `Cc1cc(NC(=O)CN2CCC(n3nnc4cc(C(F)(F)F)ccc43)CC2)no1` the “hERG current change (%, negative = inhibition) at 1uM” value was -17.6%.
For `Cc1ccc2c(c1)C(c1ccc(F)cc1)N(C(=O)C1CC1)CC(=O)N2` (centres unmarked), the “hERG current change (%, negative = inhibition) at 1uM” value was 8.88%.
For `CCC(=O)NC(=S)Nc1cccc(NC(=O)c2ccco2)c1`, the “hERG current change (%, negative = inhibition) at 1uM” value was 16.9%.
`O=C(Nc1cccc(-c2nnc(-c3ccco3)o2)c1)C(c1ccccc1)c1ccccc1` was tested, and the “hERG current change (%, negative = inhibition) at 1uM” value was 15.6%.
In the case of `Cc1ccccc1C(=O)NC1CCN(C(=O)Nc2ccc(F)cc2)CC1`, the “hERG current change (%, negative = inhibition) at 1uM” value is reported as 5.39%.
With `COc1ccc(C(=O)N(Cc2cccs2)C2CCS(=O)(=O)C2)cc1` (centres unmarked) the “hERG current change (%, negative = inhibition) at 1uM” value was 15.6%.
In the case of `O=C(OCC(=O)N1CCN(c2ccccc2)CC1)c1ccc(O)cc1O`, the “hERG current change (%, negative = inhibition) at 1uM” value is reported as 11.1%.
`Cc1cc(C)cc(N(C(=O)CNS(=O)(=O)c2ccccc2)C(C(=O)NCc2ccccc2)c2ccc(C)o2)c1` (centres unmarked) was tested, and the “hERG current change (%, negative = inhibition) at 1uM” value was 14.4%.
In the case of `O=C(COC(=O)c1ccccc1NC(=O)c1ccco1)NCC1CCCCC1`, the “hERG current change (%, negative = inhibition) at 1uM” value is reported as 11.9%.
`Cc1cc(C)cc(C(=O)NC(CC(N)=O)c2ccc(N3CCCCCC3)c([N+](=O)[O-])c2)c1` (centres unmarked) was tested, and the “hERG current change (%, negative = inhibition) at 1uM” value was 16%.
With `C/C=C(\C)C(=O)NCCN1C2=NC[C@H](C(C)C)N2C[C@H]1Cc1ccc(O)cc1` the “hERG current change (%, negative = inhibition) at 1uM” value was 29.8%.
In the case of `Cc1cc(N2CCCC2)n2nc(C)nc2n1`, the “hERG current change (%, negative = inhibition) at 1uM” value is reported as 4.06%.
With `O=C(NC1CCCCCCC1)c1cc(F)c(F)cc1Cl` the “hERG current change (%, negative = inhibition) at 1uM” value was 4.43%.
For `CS(=O)(=O)c1cccc(C(=O)Nc2ccc3c(c2)OCCCO3)c1`, the “hERG current change (%, negative = inhibition) at 1uM” value was 16.4%.
For `Cc1cccc(NC(=O)c2cccc(N3C(=O)C4CCC(C)CC4C3=O)c2)c1C` (centres unmarked), the “hERG current change (%, negative = inhibition) at 1uM” value was 9.05%.
In the case of `CCOC(=O)CC1CCCCN1C(=O)CCCn1nnnc1CN1CCOCC1` (centres unmarked), the “hERG current change (%, negative = inhibition) at 1uM” value is reported as 16.2%.
In the case of `COc1ccc(-c2ccc(C(=O)C3CC3)cc2)cc1`, the “hERG current change (%, negative = inhibition) at 1uM” value is reported as 14.5%.
`COc1cc(C)ccc1N(CCCN1C(=O)c2cccc3cccc(c23)C1=O)C(=O)c1cccs1` was tested, and the “hERG current change (%, negative = inhibition) at 1uM” value was -3.71%.
`O=C(c1cc(-c2cccnc2)nc2ccc(Br)cc12)N1CCN(c2ncccn2)CC1` was tested, and the “hERG current change (%, negative = inhibition) at 1uM” value was 6.94%.
`CCC(C)Nc1cc(C)nc2ncnn12` (centres unmarked) was tested, and the “hERG current change (%, negative = inhibition) at 1uM” value was 33.9%.
In the case of `CC(=O)Nc1ccc(NC(=O)COc2cccc3c2OC(C)(C)C3)cc1`, the “hERG current change (%, negative = inhibition) at 1uM” value is reported as 5.21%.
With `CCCCn1c(SCc2ccccn2)nc2c1c(=O)n(C)c(=O)n2C` the “hERG current change (%, negative = inhibition) at 1uM” value was 2.76%.
`Cc1sc(N2C(=O)C3C4C=CC(C4)C3C2=O)c(C#N)c1C` (centres unmarked) was tested, and the “hERG current change (%, negative = inhibition) at 1uM” value was 4.76%.
For `CN(C)C=C1C(=O)c2ccccc2C1=O`, the “hERG current change (%, negative = inhibition) at 1uM” value was 11.5%.
`N#Cc1c(SCC(=O)OCc2ccccc2)nsc1SCC(=O)OCc1ccccc1` was tested, and the “hERG current change (%, negative = inhibition) at 1uM” value was 7.73%.
With `O=C(COc1ccc(Br)cc1CO)Nc1ccc(F)cc1` the “hERG current change (%, negative = inhibition) at 1uM” value was 5.08%.
`COc1cc(/C=N/OCC(=O)NC2CCS(=O)(=O)C2)ccc1OC(F)F` (centres unmarked) was tested, and the “hERG current change (%, negative = inhibition) at 1uM” value was 3.92%.
For `O=C(CCC(=O)N1CCOc2ccc(Cl)cc21)NCc1ccccc1`, the “hERG current change (%, negative = inhibition) at 1uM” value was 7.62%.
`CCCN(CCC)S(=O)(=O)c1ccc(C(=O)Nc2nnc(-c3cc(OC)cc(OC)c3)o2)cc1` was tested, and the “hERG current change (%, negative = inhibition) at 1uM” value was 5.23%.
With `O=C(NCC(=O)N1CCCC(C(F)(F)F)C1)c1ccc(Oc2ccccc2)cc1` (centres unmarked) the “hERG current change (%, negative = inhibition) at 1uM” value was 10%.
In the case of `O=C(CSc1nnc(Cc2cc(=O)[nH]c(=O)[nH]2)n1-c1ccc(F)cc1)N1CCCCC1`, the “hERG current change (%, negative = inhibition) at 1uM” value is reported as 12.5%.
With `O=C(Cc1ccc(Cl)cc1)Nc1ccc(S(=O)(=O)Nc2ncccn2)cc1` the “hERG current change (%, negative = inhibition) at 1uM” value was 13.9%.
`COc1ccc(-c2nnc(SC3CCOC3=O)n2C2CCCCC2)cc1OC` (centres unmarked) was tested, and the “hERG current change (%, negative = inhibition) at 1uM” value was 1.55%.
For `O=c1[nH]c2cc3c(cc2cc1CN(CCCO)C(=S)NCc1ccco1)OCO3`, the “hERG current change (%, negative = inhibition) at 1uM” value was 3.28%.
